# Measured values published in PubChem BioAssay AID1508642 (National Center for Advancing Translational Sciences (NCATS), 2021).
# In all, about 43,000 compounds went through this assay and about 200 (0.47%) were called active. Not shown: some 12% with an inconclusive outcome. Calls follow the shape of the dose curve; as a rule, active = well fitted cell-killing curve with a large enough effect; inconclusive = small, poorly fitted or top-dose-only effect, or effect the other way; inactive = flat fitted curve, though single readings scatter. The list shows a part of the results.
# Test: Cell viability qHTS assay in S16 Pmp22-F2sN cells; also: nearly all actives have a fitted effect of over 65% in size
# Conditions: S16 Pmp22-F2sN Schwann cells (luciferase reporters placed in the Pmp22 gene) viability, CellTiter-Glo, 24 h; series mostly up to 57.5 µM; activity change, negative = cytotoxicity: at the top concentration
# Outline: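 Seed 500-1,000 S16 Pmp22-F2sN cells per well in phenol-red-free DMEM with 10% heat-inactivated FBS; pin-add 23 nL compound; incubate 24 h at 37C; add CellTiter-Glo, wait 15 min protected from light; read luminescence.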
# % is scaled to controls: 0 for no effect and ±100 for the full control effect.
row,SMILES,"activity change, negative = cytotoxicity"
1,CCc1ccccc1NC(=O)N1CCC2(CC1)Oc1ccccc1C(=O)N2Cc1ccccc1F,inactive: 8.66%
2,COc1ccccc1Nc1ncc(C(=O)Nc2ccc(OC)c(OC)c2)c2ccccc12,inactive: -1.57%
3,O=C(c1ccc2c(c1)N(Cc1ccccc1)C(=O)c1ccccc1S2=O)N1CCC(Cc2ccccc2)CC1 (stereo unspecified),inactive: -9.64%
4,Cc1ccc2c(c1)c(=O)c(S(=O)(=O)c1ccc(C)c(C)c1)cn2CC(=O)Nc1ccccc1,inactive: 4.56%
5,CCc1cccc(C)c1NC(=O)C1=C(C)C(=O)OC12CCC(C)CC2 (stereo unspecified),inactive: 4.71%
6,CCCOc1ccc(C2=NC(c3ccc(F)cc3)=Nc3ccc(OC)cc3N2)cc1,inactive: -0.388%
7,COC(=O)c1cc(S(=O)(=O)N2CCN(c3ccc(F)cc3)CC2)cn1C,inactive: -13.4%
8,COc1ccccc1CNC(=O)c1ccc2c(c1)CCN2S(=O)(=O)c1ccc(Cl)cc1,inactive: 1.58%
9,COc1ccc2nc(N(Cc3cccnc3)C(=O)COc3ccccc3)sc2c1,inactive: -1.66%
10,Cn1cc(C(=O)NCCc2ccc(Cl)cc2)c(=O)c2cc(S(=O)(=O)N3CCCCC3)ccc21,inactive: -4.64%
11,COC(=O)c1ccc(Cn2nnc3c(=O)[nH]c(C4CCCN(S(=O)(=O)c5ccccc5)C4)nc32)cc1 (stereo unspecified),inactive: -5.12%
12,Cc1ccc(Nc2ncnc3c2nc2n3CCCC2)c(Br)c1,inactive: -5.32%
13,COc1ccccc1CNC(=O)c1cnc2sc(N3CCOCC3)nn2c1=O,inactive: -4.43%
14,COc1ccc(N2CCN(C(=O)Cn3nc(Cc4cccnc4)c4ccccc4c3=O)CC2)cc1,inactive: -2.15%
15,COc1ccc(NC(=O)NCC2CCN(Cc3ccccc3F)CC2)c(OC)c1,inactive: -1.17%
16,CCOc1ccccc1C(=O)Nc1cc(-c2ccc(C)cc2)no1,inactive: -5.45%
17,Cc1cccc(S(=O)Cc2ccc(C(=O)NC3CCCCCC3)o2)c1 (stereo unspecified),inactive: 13.1%
18,Cc1c(-c2ccccc2)n(-c2ccccc2O)c2nc3c(c(=O)n(C)c(=O)n3C)n12,inactive: -11.6%
19,Cc1ccc(C(=O)Nc2ccc(C(=O)OCc3cc(=O)n4c5c(sc4n3)CCCC5)cc2)cc1,inactive: -18.5%
20,CCOc1ccc(-c2nnc(SCC(=O)NCCc3ccccc3)nc2-c2ccc(OCC)cc2)cc1,inactive: 13.1%
21,COc1cccc(CNc2nc3c(-c4cccc(C)c4)nnn3c3ccccc23)c1,inactive: 5.65%
22,CC(=O)Nc1ccc(NC(=O)CCC(=O)c2ccc(C)cc2)cc1,inactive: -3.47%
23,Cc1cc(NC(=O)C(C)(C)Oc2ccc(Cl)cc2)cc(-c2nc3ncccc3o2)c1O,inactive: 6.54%
24,CCOc1ccccc1NC(=O)c1ccc2c(Cl)c3c(nc2c1)CCCC3,inactive: 25.4%
25,COc1ccc(C)cc1NC(=O)CCNS(=O)(=O)c1cccc2nonc12,inactive: 12%
26,CCc1ccc(NC(=O)c2sc3nc(C)c(Cl)c(C)c3c2NC(=O)c2ccccc2)cc1,inactive: 7.47%
